“And” between values parts separate entries of the source, which are not always exact repeats. Equal values may be shown once. This list was built around the results that the source calls inconclusive (neither active nor inactive); the mix of calls is not that of the screen. Potencies beside an inconclusive call are fits to weak or partial responses and may not hold up. The source made the active and inactive calls. Calls follow the shape of the dose curve; as a rule, active = well fitted curve in the direction sought with a large enough effect; inconclusive = small, poorly fitted or top-dose-only effect, or another doubt; inactive = no such curve, though single readings can be large; an effect the other way counts as inactive or inconclusive.
What was measured:
[1] = qHTS for Inhibitors of Plasmodium falciparum (DD2) proliferation (AID 504314);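 as to activity, negative = inhibition: parasite DNA measured by SYBR Green fluorescence after red cell lysis; plate controls were DMSO vehicle for no effect and artemisinin wells for full effect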; settings: P. falciparum Dd2 in erythrocytes, SYBR Green growth, 72 h; activity, negative = inhibition: at 6.11 µM (top of the series)
Procedure, shortened: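 Quantitative HTS growth inhibition: SYBR Green I binding to parasite DNA after 72 h drug exposure of infected erythrocytes (0.3% parasitemia, 2.5% hematocrit). Signals normalized per plate to inhibitor and vehicle wells.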

[2] = qHTS for Inhibitors of Plasmodium falciparum (GB4) proliferation (AID 504315); also: nearly all actives have a fitted effect of over 50% in size;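 as to activity change, negative = inhibition: 0% = DMSO vehicle and -100% = 0.29 µM artemisinin control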; settings: P. falciparum GB4 in erythrocytes, SYBR Green DNA, 72 h; activity change, negative = inhibition: at 6.7 µM (top of the series)
Procedure, shortened: (§1)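 Erythrocytes infected with P. falciparum line (0.3% parasitemia, 2.5% hematocrit final) incubated with compounds 72 h at 37 °C, 5% CO2; SYBR Green lysis buffer added, fluorescence read next day. Normalized to 0.29 uM artemisinin and DMSO.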

[3] = qHTS for Inhibitors of Plasmodium falciparum (7G8) proliferation (AID 504316); also: nearly all actives have a fitted effect of over 65% in size;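 as to activity change, negative = inhibition: 0% = DMSO vehicle and -100% = 0.29 µM artemisinin full kill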; settings: P. falciparum 7G8 in erythrocytes, SYBR Green DNA, 72 h; activity change, negative = inhibition: at 6.7 µM (top of the series)
Procedure, shortened: as §1

[4] = qHTS for Inhibitors of Plasmodium falciparum (HB3) proliferation (AID 504318); also: nearly all actives have a fitted effect of over 60% in size; settings: P. falciparum HB3 in erythrocytes, SYBR Green DNA, 72 h; activity change, negative = inhibition: at 7.21 µM (top of the series)
Procedure, shortened: as §1
Potency is read from the fitted curve at half-maximal effect; tags tell the direction and shape of the fitted curve.

Row | Structure (SMILES) | Potency [1] | Potency [2] | Potency [3] | Potency [4] | activity, negative = inhibition [1]
1 | COc1ccc2c(c1)CO[C@H]([C@H](O)CO)[C@H]2C=CC#Cc1ccc(C(C)(C)C)cc1 | inconclusive: 4.24 µM [inhibitor, single point] | inactive | inconclusive: 2.39 µM [inhibitor, single point] | – | –
2 | COc1ccc2c(c1)[C@@]1(OCCC=C[C@@H]1C)C(=O)N2Cc1ccccc1C(F)(F)F | inconclusive: 1.34 µM [inhibitor, partial curve, poor fit] | inconclusive: 3.01 µM [inhibitor, single point] | inconclusive: 0.426 µM [inhibitor, single point] | – | –
3 | O=C1[C@H]2[C@@H]3[C@@H](O)[C@H](O)CC(=NOCc4ccccc4)[C@@H]3CC[C@H]2C(=O)N1Cc1ccc2c(c1)OCO2 | inconclusive: 4.24 µM [inhibitor, single point] | inactive | – | – | –
4 | C[C@H]1Cc2c(COc3ccccc3)nc3c(c2CO1)CN(C(=O)NCc1ccco1)CC3 | inconclusive: 1.69 µM [inhibitor, partial curve, poor fit] | inconclusive: 0.379 µM [inhibitor, full curve, poor fit] | inconclusive: 3.01 µM [inhibitor, single point] and inconclusive: 3.79 µM [inhibitor, partial curve, poor fit] | inconclusive: 2.82 µM [inhibitor, single point] and inconclusive: 1.69 µM [inhibitor, single point] | –
5 | COC(=O)CCC(=O)N1C2=NC3=C(C(=O)N(Cc4ccc5c(c4)OCO5)C3=O)C3N(C)c4ccccc4[C@]23C[C@H]1CO (stereo partly specified) | inconclusive: 3.78 µM [inhibitor, single point] | inconclusive: 1.69 µM [inhibitor, partial curve] | inconclusive: 1.9 µM [inhibitor, single point] | – | –
6 | COC(=O)CC=C1c2ccccc2OC[C@@H](OC)[C@H]1C | inconclusive: 0.0119 µM [activator, full curve, poor fit] | inactive | inactive | – | –
7 | COC(=O)CC=C[C@@H](C)[C@@H](C=NOC[C@@H](O)COCc1ccco1)NS(=O)(=O)c1ccc(C)cc1 | inactive | inactive | inconclusive: 4.26 µM [inhibitor, single point] | inconclusive: 0.0828 µM [inhibitor, partial curve, poor fit] | –
8 | COc1ccc2c(c1)O[C@@H](c1ccc3c(c1)OCO3)[C@H](OC(=O)Nc1cc(OC)c(OC)c(OC)c1)C2=O | inconclusive: 2.67 µM [inhibitor, single point] | inconclusive: 1.51 µM [inhibitor, partial curve] | active: 1.69 µM | inconclusive: 1.69 µM [inhibitor, single point] | –
9 | CCN1C(=NCc2ccccc2)NC(c2cccc(C(F)(F)F)c2)C(C(=O)OC)=C1C (stereo unspecified) | inconclusive: 1.89 µM [inhibitor, partial curve] | inconclusive: 0.757 µM [inhibitor, partial curve] | inconclusive: 3.01 µM [inhibitor, single point] | – | –
10 | CCCCS(=O)(=O)N1C2=NC(C(=O)OC)=C(C(=O)OC)[C@@H]3N(Cc4ccccc4)c4ccccc4[C@]23C[C@H]1C(=O)OC | inconclusive: 0.185 µM [inhibitor, partial curve, poor fit] | inconclusive: 4.26 µM [inhibitor, single point] | active: 1.51 µM | active: 2.39 µM | –
11 | COc1ccc([C@]23Cc4cc(C#N)ccc4[C@H](O2)c2c(cc(C)n(-c4ccccc4)c2=O)O3)cc1 | inconclusive: 1.89 µM [inhibitor, single point] | inconclusive: 1.9 µM [inhibitor, single point] | inconclusive: 3.38 µM [inhibitor, single point] | inconclusive: 3.38 µM [inhibitor, single point] | –
12 | COc1cccc([C@@H]2[C@H](C)C[C@H]3CC(=O)N4[C@H](CC(=O)N32)C[C@@H](C)[C@@H]4c2cccc(OC)c2)c1 | inconclusive: 1.19 µM [inhibitor, partial curve, poor fit] | inconclusive: 4.26 µM [inhibitor, single point] | active: 1.51 µM | inconclusive: 1.9 µM [inhibitor, partial curve] | –
13 | CC1=CC[C@@H](COc2ccccc2)O[C@@]2(C1)C(=O)Nc1ccccc12 | inactive | inconclusive: 3.38 µM [inhibitor, single point] | inconclusive: 0.135 µM [inhibitor, partial curve, poor fit] | – | –
14 | COc1ccc([C@]23Cc4cc(OC)c(OC)cc4[C@H](O2)C2=C(CCCC2=O)O3)cc1 | inconclusive: 1.69 µM [inhibitor, partial curve] | inconclusive: 1.69 µM [inhibitor, partial curve] | active: 1.51 µM | inconclusive: 1.69 µM [inhibitor, partial curve] | –
15 | CCN1C(=NCCc2ccccn2)NC(c2cccs2)C(C(=O)OC)=C1C (stereo unspecified) | inconclusive: 2.12 µM [inhibitor, partial curve, poor fit] | inconclusive: 1.35 µM [inhibitor, partial curve, poor fit] | inconclusive: 1.51 µM [inhibitor, single point] | – | –
16 | COC(=O)C12C[C@@H](C)C3C(C)C(c4ccccc4C31)N2C(=O)C(F)(F)F (stereo partly specified) | inconclusive: 4.24 µM [inhibitor, single point] | inconclusive: 1.9 µM [inhibitor, single point] | inactive | – | –
17 | CCN1C(=O)N[C@@H](c2cccc(F)c2)C(C(C)=O)=C1C | – | inactive | inactive | – | inactive: 0.504% [at 1.12 µM]
18 | C#CCCOC(=O)N1C2=NC(C(=O)OC)=C(C(=O)OC)[C@@H]3N(C)c4ccc(OC)cc4[C@]23C[C@H]1C(=O)OC | – | inconclusive: 4.26 µM [inhibitor, single point] | inconclusive: 4.26 µM [inhibitor, single point] | inconclusive: 1.9 µM [inhibitor, single point] | inactive: 2.91% [at 1.12 µM]
19 | C[C@]12C[C@@](C)(C=C1C=Cc1ccccc1)C(=O)C[C@H]2c1ccccc1 | inconclusive: 2.38 µM [inhibitor, partial curve, poor fit] | inconclusive: 1.51 µM [inhibitor, single point] | inconclusive: 1.69 µM [inhibitor, partial curve] | inconclusive: 1.51 µM [inhibitor, partial curve, poor fit] | –
20 | COC/C=C/C1=CC2=CC(=O)C(C)(OC(=O)c3cnc4ccccc4n3)C(=O)C2=CN1CCc1c[nH]c2ccccc12 (stereo unspecified) | – | inactive | inactive | – | inactive: 1.71% [at 1.12 µM]
21 | CCCNC(=O)OC[C@H]1O[C@H](CCON=Cc2ccc(C(=O)N3[C@H](C(=O)OC)CC[C@H](C)[C@@H]3c3ccc(C)cc3)cc2)C=C[C@H]1Oc1ccc(OC)cc1 | inconclusive: 1.69 µM [inhibitor, partial curve, poor fit] | inconclusive: 1.69 µM [inhibitor, single point] | inconclusive: 1.9 µM [inhibitor, single point] | – | –
22 | CC#CCN1c2ccccc2[C@]23C[C@@H](C(=O)OC)N(S(=O)(=O)c4ccc(C#N)cc4)C2=NC(C(=O)OC)=C(C(=O)OC)[C@H]13 | – | inconclusive: 4.26 µM [inhibitor, single point] | inconclusive: 4.26 µM [inhibitor, single point] | inconclusive: 4.26 µM [inhibitor, single point] | inactive: 3.25% [at 1.12 µM]
23 | C=CCC12C=C(OC)C(=O)C(C1=O)C1c3ccccc3CC12 (stereo unspecified) | inactive | inconclusive: 1.35 µM [inhibitor, partial curve, poor fit] | inconclusive: 1.2 µM [inhibitor, single point] | – | –
24 | COc1ccc([C@@H](NC(=O)C(F)(F)F)C2CCCC=C2c2ccccc2)cc1OC (stereo partly specified) | inconclusive: 3.78 µM [inhibitor, single point] | inconclusive: 3.01 µM [inhibitor, single point] | inconclusive: 1.51 µM [inhibitor, single point] | – | –
25 | COc1ccc(CN2C=C3C(=O)C(C)(OC(=O)CCc4ccccc4)C(=O)C=C3C=C2c2ccc(C#N)cc2)cc1 (stereo unspecified) | inconclusive: 0.293 µM [inhibitor, single point] | inactive | inconclusive: 1.69 µM [inhibitor, partial curve, poor fit] | – | –
26 | COc1cccc([C@H]2NC(=O)CC=C[C@H](C)[C@@H](c3cccc(OC)c3)NC(=O)CC=C[C@H]2C)c1 | inconclusive: 1.89 µM [inhibitor, single point] | inconclusive: 1.69 µM [inhibitor, single point] | inconclusive: 1.07 µM [inhibitor, single point] | – | –
27 | O=C1N(Cc2ccc(Br)cc2)c2cccc(Br)c2[C@@]12O[C@H](COc1ccccc1)CC1=CCCC12 (stereo partly specified) | inconclusive: 3 µM [inhibitor, partial curve, poor fit] | inconclusive: 4.26 µM [inhibitor, single point] | inconclusive: 2.13 µM [inhibitor, single point] | inconclusive: 1.51 µM [inhibitor, single point] | –
